Laboratory results from patent publication US20250084178A1 (ARCUS BIOSCIENCES, published 2025).

What was measured:
[1] = molecular target: T1, human CD39 expressed on the cell surface (human, UniProt P49961 1-510); experiment: cell-based or functional assay
T1 sequence: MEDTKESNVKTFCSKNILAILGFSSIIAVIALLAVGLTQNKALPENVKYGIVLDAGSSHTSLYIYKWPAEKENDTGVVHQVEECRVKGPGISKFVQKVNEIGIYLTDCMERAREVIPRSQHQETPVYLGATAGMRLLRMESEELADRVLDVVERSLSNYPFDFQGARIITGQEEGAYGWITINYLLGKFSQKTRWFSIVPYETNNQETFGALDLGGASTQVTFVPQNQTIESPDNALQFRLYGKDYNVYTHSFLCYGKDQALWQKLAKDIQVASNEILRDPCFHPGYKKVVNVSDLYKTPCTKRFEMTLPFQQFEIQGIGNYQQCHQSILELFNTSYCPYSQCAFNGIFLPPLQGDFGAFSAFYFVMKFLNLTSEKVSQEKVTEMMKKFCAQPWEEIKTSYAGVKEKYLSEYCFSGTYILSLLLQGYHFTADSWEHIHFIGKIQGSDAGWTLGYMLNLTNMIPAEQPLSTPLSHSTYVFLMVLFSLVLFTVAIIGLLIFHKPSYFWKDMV

[2] = molecular target: T1, human CD39 expressed on the cell surface; experiment: flow cytometry on purified human CD14+ monocytes, 0 uM ATP
[3] = molecular target: T1, human CD39 expressed on the cell surface; experiment: flow cytometry on purified human CD14+ monocytes, 400 uM ATP
[4] = molecular target: T1, human CD39 expressed on the cell surface; experiment: cell-based or functional assay; remark: listed apart in the source
[5] = molecular target: T1, human CD39 expressed on the cell surface; experiment: cell-based or functional assay; remark: listed apart in the source

IC50, CD39 enzymatic inhibition on human monocytes, 400 uM ATP [1]: 0.87 nM | Max Inhibition (%), human monocytes, 400 uM ATP [1]: 71% | EC50 [2]: 15 nM | EC50 [3]: 25 nM
B1: hu31.2_IGG4.P (antibody, human IgG4 S228P, kappa, V domains shown)
VH: QVQLVQSGAEVKKPGASVKVSCKVSGDSITAYFMHWVRQAPGKGLEWMGRIDPDHERTKYAEKFKNRVTMTSDTSTNTVYMELSSLRSEDTAVYYCATERVPGFETDYWGQGTMVTVSS
VL: DIVLTQSPALAVSPGQRATITCRTQQTVDHYGTTYMNWYQQKPGQPPKLLIYLASSLASGVPARFSGSGSGTDFTLTINPVEANDTANYYCQQSRNLWTFGGGTKVEIKR
notes: humanized variant of antibody 31, IgG4 (S228P)

IC50, CD39 enzymatic inhibition on SK-MEL-5 cells, 20 uM ATP [4]: 0.61 nM | Max Inhibition (%), SK-MEL-5 cells [4]: 71% | IC50, CD39 enzymatic inhibition on THP-1 cells, 20 uM ATP [5]: 0.08 nM | Max Inhibition (%), THP-1 cells [5]: 79% | EC50 [2]: 7.7 nM | EC50 [3]: 26 nM
B2: hu31.3_IGG4.P (antibody, human IgG4 S228P, kappa, V domains shown)
VH: B1 VH
VL: B1 VL with Q25N, Q26P, N84D
notes: as for B1

Substitutions are numbered along the chain they refer to. Names and notes keep the numbering of the source. One block for each binder: values may come before it.
